Out of some 1,200 compounds screened, about 55 (5%) were called active. Not shown: some 15% with an inconclusive outcome. Calls come from the whole dose curve; as a rule, active = well fitted inhibition curve with a large enough effect; inconclusive = small, poorly fitted or top-dose-only effect; inactive = no such curve, though single readings can be large or run the other way. Some of the results follow.
Test: qHTS Assay to Find Inhibitors of Chronic Active B-Cell Receptor Signaling: Hit Validation in Renilla Reporter Assay; note: nearly all actives have a fitted effect of over 70% in size
Details: TMD8 IkB-Renilla luciferase reporter, NF-kB signaling; series mostly up to 57.5 µM; activity change, negative = inhibition: at the top concentration
Method in brief: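 Dual-Glo luminescence read-out of constitutively expressed IkB-Photinus/Renilla luciferase reporters in ABC-DLBCL lines, used to retest primary hits; reporter enzymes differ from the click beetle luciferases used in the primary screen.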
% is set by controls: 0 for no effect and ±100 for the full control effect.

Activity change, negative = inhibition, inactive:
Cc1ccc(/C(C#N)=C\c2ccc(N3CCOCC3)o2)cc1 -20.7%, COc1ccc(CCNC(=O)C(=O)c2c(C)n(C)c3ccccc23)cc1OC 1.47%, COc1cc(Br)cc(/C=C/c2ccc3cccc(O)c3n2)c1O -27.7%, CCOc1cc(C(=O)N/N=C(\C)Cc2ccc(OC)cc2)cc(OCC)c1OCC -7.08%, CCOc1ncccc1C(=O)N1CCN(c2cccc(C)c2C)CC1 1.81%, O=C1NC(=Nc2ccc(O)cc2)S/C1=C\C=C\c1ccco1 -0.0749%, CCOC(=O)C(NC(=O)N(C)C)(Nc1sc(C)c(CC)c1C#N)C(F)(F)F (stereo unspecified) 2.92%, NCCNC(=O)Cc1ccc(NC(=O)Cc2ccc(Nc3ncnc4c3ncn4[C@@H]3O[C@H](CO)[C@@H](O)[C@H]3O)cc2)cc1 -11.2%, CCOc1cc(Br)c(C=O)cc1OCC -3.14%, O=C(COc1ccc(C(=O)c2ccc(F)cc2)cc1)NCc1ccc(F)cc1 1.41%, Cc1cc(=O)[nH]c2ccc(S(=O)(=O)Nc3ccc(O)cc3)cc12 9.49%, COc1ccc(N(C(=O)c2ccccc2C)S(=O)(=O)c2cccs2)cc1 12.6%, O=C1NC(=O)C(=C2CCCCCC2)S1 -1.65%, O=C(N/N=C/c1ccc([N+](=O)[O-])o1)c1cc(-c2ccc(-c3ccccc3)cc2)nc2ccccc12 2.9%, CCOc1ccc2c(c1)C(C)=CC(C)(C)N2S(=O)(=O)c1ccc(C)cc1 -10.9%, CCOC(=O)CSc1nc(C)c2cccc(C)c2n1 0.405%, COc1cc2c(c(OC)c1OC)C(c1ccc(C)cc1)CC(=O)O2 (stereo unspecified) 8.03%, CSc1ccc(COC(=O)c2cc([N+](=O)[O-])ccc2N2CCOCC2)cc1 -21.4%, CCCC(=O)O[C@]1(C(=O)CO)CC[C@H]2[C@@H]3CCC4=CC(=O)CC[C@]4(C)[C@H]3[C@@H](O)C[C@@]21C 10.2%, COc1ccc(-c2nn(-c3ccccc3)cc2/C=C/C(=O)O)cc1[N+](=O)[O-] -19.2%, CCOc1cc(-c2cc(-c3ccc(NC(C)=O)cc3)nc(N)c2C#N)ccc1O -20.3%, CN(CC(=O)Nc1ccccc1C(F)(F)F)C(=O)c1ccccc1Sc1ccccc1C#N 27.4%, CN(C)NC(=S)NC(=O)C12CC3CC(CC(C3)C1)C2 -3.5%, Nc1ncnc2c1ncn2[C@@H]1O[C@H](CNCc2cccc(C#Cc3ccccc3)c2)[C@@H](O)[C@H]1O -0.571%, CCOC(=O)c1ccccc1NC(=O)Cn1c(-c2nonc2N)nc2ccccc21 -4.59%, COc1ccc(NC(=O)C(=O)c2cn(CC(=O)N3CCCC3)c3ccccc23)cc1 5.43%, CCn1ncc(C2=NOC(C(=O)NCc3ccc(Cl)cc3)C2)c1C (stereo unspecified) -9.03%, CCOC(=O)Cc1csc(NC(=S)NC(=O)c2ccccc2)n1 4.06%, COC(=O)CCC(=O)NC(=S)Nc1sc(C)c(C)c1C(N)=O 4.1%, CC(C)Sc1ccccc1C(=O)Nc1ccc2c(c1)n(C)c(=O)n2C 17.2%, CCOC(=O)c1c(C)sc2c1N(C(C)=O)c1cc(Cl)ccc1S2 -14.3%, CC1=Nc2cc(C(=O)NCC3CCCO3)ccc2Sc2ccc(C)cc21 (stereo unspecified) -2.91%, Cc1nnc(C)n1/N=C/c1cc2ccccc2nc1Cl -10.6%, C#CCOc1ccc(C2C3=C(COC3=O)Nc3cc4c(cc32)OCO4)cc1OC (stereo unspecified) -16%, COc1cccc(N2CCN(C(=O)c3ccc(CS(=O)c4ccccc4C)o3)CC2)c1 (stereo unspecified) -4.07%, NNC(=O)c1[nH]c2ccccc2c1-c1ccccc1 -21.4%, CC[C@@H](C)[C@H](NC(=O)CCc1c(C)c2cc3c4c(oc3c(C)c2oc1=O)CCCC4)C(=O)O -26.6%, CCN(CC)c1ccc(NC(=O)c2cc(OC)cc(OC)c2)c(C)c1 4.37%, COc1cc2c(c(OC)c1OC)-c1ccc(OC)c(=O)cc1C(NC(C)=O)CC2 (stereo unspecified) -16.3%, COC(=O)c1cnc(Oc2ccc(NC(=O)NC(=O)c3c(OC)cccc3OC)cc2)cc1C(F)(F)F -0.497%, COc1cc(OC)c2c(c1)OC(=O)CC2c1cc(OC)c(OC)c(OC)c1 (stereo unspecified) 2.97%, COc1ccc(C2CC(=O)Oc3cc(OC)c(OC)c(OC)c32)cc1 (stereo unspecified) 2.1%, Cc1ccccc1N=Nc1c(C)[nH]n(C(N)=S)c1=O -10.4%, CCCCC(=O)NC(=S)Nc1nnn(CCC)n1 -0.93%, O=C(O)CCCCCCCCc1cn(Cc2ccc(C(=O)c3ccccc3)cc2)nn1 2.47%, NNC(=O)c1[nH]c2ccc(Cl)cc2c1-c1ccccc1 -23.5%, O=C(COc1ccc(C(=O)c2ccccc2)cc1)NCc1ccc(F)cc1 -1.09%, Cc1ccccc1NC(=S)NCc1ccc2c(c1)cc(C)n2C 3.22%, CCOc1cc(/C=N\NC(N)=O)cc(Br)c1OC(C)C -6.49%, Cc1nn(CCC(=O)NNC(=S)NCC(C)C)c(C)c1Br 5.3%, CCCC1=Nc2cc(C(=O)NCCCOCC)ccc2Sc2ccccc21 -1.19%, CC1=Nc2cc(C(=O)NC3CCCC3)ccc2Sc2ccc(Cl)cc21 -3.91%, COc1cccc(C2NC(=S)NC(C)=C2C(=O)c2ccccc2)c1OC (stereo unspecified) -1.68%, COc1cc(NC(=S)NC(=O)c2ccccc2F)ccc1NC(=O)c1ccco1 -16.4%, Cc1cc(C)c(C#N)c(SCc2c(F)cccc2[N+](=O)[O-])n1 0.286%, Cc1nc(NC(=S)Nc2ccccc2)sc1C 6.17%, CC1=Nc2cc(C(=O)NCc3ccco3)ccc2Sc2ccc(C)cc21 4.54%, C/C(CCC(C)C)=N\NC(=O)COc1ccccc1-c1ccccc1 3.16%, N#Cc1ccccc1NC(=O)c1cccc(COc2ccc(Cl)cc2Cl)c1 -2.34%, C=CCOc1ccc(/C=C2\SC(N)=NC2=O)cc1OC 1.12%, COc1cc(C(=O)NNC(=O)C2CC=CCC2C(=O)O)cc(OC)c1OC (stereo unspecified) -1.78%, Cc1ccc(C(=O)O)cc1NC(=S)NC(=O)C(c1ccccc1)c1ccccc1 -23%, CC[C@]12c3[nH]c4cc(CCC(=O)N(C)C)ccc4c3CCN1C(=O)[C@@H](CC(=O)NCCc1ccccn1)C[C@@H]2C(=O)N1CCN(C(=O)C2CC2)CC1 -3.84%, COc1ccc(CN2C[C@H]3CCCN3c3cc(Br)ccc3S2(=O)=O)cc1 7.33%, Cc1ccc(OC/C(=N\O)C(C)(C)C)c([N+](=O)[O-])c1 3.16%, CCc1nnc(NC(=S)Nc2ccccc2)s1 1.96%
